Measured values reported in paper PMC4336329 (PLoS ONE, 2015).
In all, about 310,000 compounds went through this assay and about 14,000 (4.5%) showed an effect of 50% or more. The effect is printed as a negative number. This is one part of the list.

Biological target: human ether-à-go-go-related gene (hERG) potassium channel (human, UniProt Q12809)
Test: primary screen, population patch clamp on CHO cells stably expressing hERG
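Also: peak tail current of the secondary pulse compared with the same well before compound.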

Chain of human ether-à-go-go-related gene (hERG) potassium channel (Q12809 whole entry, looked up): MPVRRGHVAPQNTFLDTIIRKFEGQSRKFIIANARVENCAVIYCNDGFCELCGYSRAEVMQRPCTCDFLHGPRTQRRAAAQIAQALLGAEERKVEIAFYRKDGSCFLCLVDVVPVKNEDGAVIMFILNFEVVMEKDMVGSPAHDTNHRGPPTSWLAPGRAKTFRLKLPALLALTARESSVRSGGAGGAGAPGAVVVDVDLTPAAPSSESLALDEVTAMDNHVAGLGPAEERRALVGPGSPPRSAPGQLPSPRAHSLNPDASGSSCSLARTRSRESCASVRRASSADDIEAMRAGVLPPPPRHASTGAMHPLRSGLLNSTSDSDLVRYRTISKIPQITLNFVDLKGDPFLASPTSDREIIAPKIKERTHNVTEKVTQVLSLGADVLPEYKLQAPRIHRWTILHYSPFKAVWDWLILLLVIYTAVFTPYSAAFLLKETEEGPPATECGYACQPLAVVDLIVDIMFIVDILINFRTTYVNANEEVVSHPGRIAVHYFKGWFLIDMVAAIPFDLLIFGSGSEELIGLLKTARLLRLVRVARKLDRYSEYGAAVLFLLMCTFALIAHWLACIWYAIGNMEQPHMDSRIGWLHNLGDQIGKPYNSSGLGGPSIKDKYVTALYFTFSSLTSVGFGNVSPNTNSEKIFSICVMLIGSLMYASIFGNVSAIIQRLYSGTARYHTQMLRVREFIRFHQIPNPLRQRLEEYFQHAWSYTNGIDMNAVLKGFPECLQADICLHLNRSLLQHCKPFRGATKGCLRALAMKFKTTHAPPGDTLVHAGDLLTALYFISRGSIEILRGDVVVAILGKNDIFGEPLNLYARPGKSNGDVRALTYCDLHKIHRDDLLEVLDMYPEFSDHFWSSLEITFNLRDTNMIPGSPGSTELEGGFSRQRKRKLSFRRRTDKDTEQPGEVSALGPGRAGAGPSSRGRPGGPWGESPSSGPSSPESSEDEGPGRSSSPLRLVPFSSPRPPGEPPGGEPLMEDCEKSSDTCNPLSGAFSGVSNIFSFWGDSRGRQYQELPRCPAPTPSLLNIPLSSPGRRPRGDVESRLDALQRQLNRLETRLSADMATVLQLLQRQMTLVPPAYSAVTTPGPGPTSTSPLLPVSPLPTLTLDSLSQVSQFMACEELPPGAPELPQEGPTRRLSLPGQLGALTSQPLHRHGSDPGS

Structure (SMILES) | hERG current change (%, negative = inhibition) at 10uM [%]
Cc1cc(-c2sccc2C)nc(-n2cccc2)n1 | -4.41
CCOCCOC(=O)Cn1cnc2scc(-c3ccc(C)cc3)c2c1=O | 5.15
Cc1cccc(C)c1NC(=O)c1cc(S(=O)(=O)N2CCOCC2)cn1C | -3.25
CC(=O)Oc1c(Cl)cc(N(C(C)=O)S(=O)(=O)c2ccccc2)c2ccccc12 | 3.92
Cc1ccoc1C(=O)NCCNc1ccc(Cl)cc1[N+](=O)[O-] | -30.5
CC(C)NC(=S)N/N=C/c1ccc(C(C)(C)C)cc1 | 5.26
Cc1ccc(Cl)cc1N1CCN(S(=O)(=O)c2cn(C)cn2)CC1 | -22.4
CCn1nc(NC(=O)COC)c2cc3cc(C)ccc3nc21 | 8.99
O=C(CSc1nnc(Cc2ccccc2)n1-c1cccc(Cl)c1)NNC(=O)Cc1ccccc1 | 7.46
COc1ccc(C(CNC(=O)c2cccc3cccnc23)N(C)C)cc1 (stereo not drawn) | -7.67
CCNC(=S)NNC(=O)c1cc(-c2cc(C)ccc2C)nc2ccccc12 | 9.95
CC1=NN(C(N)=S)C(=O)C1N=Nc1ccccc1O (stereo not drawn) | 21.9
CC(C)(CO)NC(=O)C12CC3CC(CC(Br)(C3)C1)C2 | 16.7
CCN(CC)c1cc(-c2ccccc2)ncn1.Cl | -16.5
COCCN(C(=O)c1ccc(OC2CCN(S(=O)(=O)N(C)C)CC2)cc1)C(C)C | 8.93
Cc1sc2nc(SCCO)n(-c3ccccc3)c(=O)c2c1C | 11.5
Cc1cc(C)n2nc(CC(=O)NNC(=O)COc3cccc(C)c3C)nc2n1 | 19.5
CCOC(=O)c1cc(NC(=O)Nc2ccccc2Cl)c(C)nc1C | 23.8
Cc1cccc(-c2nc(CS(=O)CC(=O)N3CCN(C)CC3)c(C)o2)c1 (stereo not drawn) | 23.6
CCN1CCN(c2cc(C)c3cc(NC(=S)N4CCOCC4)ccc3n2)CC1 | -23.4
Cc1ccc(S(=O)(=O)/N=C(/c2ccccc2)N(C)C)c(C)c1 | 12.7
CCOc1ccc(S(N)(=O)=O)cc1-c1nc2c(C(C)(C)C)nn(C)c2c(=O)[nH]1 | 10.9
COc1ccc(/C=C(\NC(=O)c2ccc(Cl)cc2)C(=O)NCCCN2CCOCC2)cc1OC | 13.9

Structure (SMILES) | hERG current change (%, negative = inhibition) at 10uM [%]
N#CC1C(=O)NC(N2CCN(c3ccccc3)CC2)=NC12CCCCC2 (stereo not drawn) | -9.96
Cc1c(Br)ccc(NC(=O)Cn2nc(-c3cccs3)ccc2=O)c1C | 30.8
CN1CCN(C(=O)c2cccn(Cc3c(Cl)cccc3Cl)c2=O)CC1 | 4.24
COc1cc(C=O)ccc1OCCSc1ccc(C)cc1 | -3.13
CCC(C(=O)Nc1ccccc1OC)n1c(C(=O)OC)cc2ccsc21 (stereo not drawn) | -11.3
COC(=O)C1=C(C)N(c2ccc(Cl)c(Cl)c2)C(=O)C1 | -7.05
CN(CCc1ccccn1)Cc1ccc(Cl)c(Cl)c1 | -36.3
CCCCCC(=O)N(CN1C(=O)CCC1=O)c1ccccc1 | 6.44
S=C(NCc1ccccc1)NCC1COc2ccccc2O1 (stereo not drawn) | -12
CC1=C(C(=O)OC(C)C)C(c2cccc(F)c2)n2ncnc2N1 (stereo not drawn) | -6.25
CCCCc1ccc(NC(=O)Nc2cccnc2)cc1 | 20
CC(=O)c1cccc(NC(=S)NC(=O)c2ccccc2Cl)c1 | -0.116
CN(C)S(=O)(=O)c1ccc2c(c1)nc1n2CCC1 | 10.9
CCOC(=O)c1cccc(NC(=O)C2CCCO2)c1 (stereo not drawn) | 4.7
Cc1nnc(NC(=O)C2CCN(c3nnnn3-c3ccccc3)CC2)s1 | -16.2
Cc1ccc(NC(=O)CCSc2ccccc2)c(C)c1 | 3.6
Cc1cc(C(=O)NCCCOC(C)C)c2ccccc2n1 | -7.22
COCCNC(=O)CN1CCN(Cc2cccc(Cl)c2)C1=O | -6.53
C=CCC1(CC=C)CCCN1C(=O)CC1C(=O)NCCN1Cc1cccc(OC)c1 (stereo not drawn) | -2.86
COc1ccc(CNC(=O)C2CCN(c3nc(-c4ccccc4)nc4c3CCC4)CC2)cc1 | -19.9
Cn1c(SCC(=O)Nc2cccc(C(=O)O)c2)nnc1-c1cc2cc(Br)ccc2o1 | 11.4
CCN(c1ccccc1)S(=O)(=O)c1cnc[nH]1 | -7.09
